The results in this text go back to a collection of fitness landscapes (doi:10.1016/j.celrep.2020.107928).

In all, about 81,000 sequences were measured (“one-hybrid fitness for binding parS DNA”: median about -0.17, highest 2% from about 0.51 on). Some of the results follow.

The chains are these.
B1: Caulobacter ParB omega fusion; a variant is named by its letters at X, in order, B8GW30 (parent)
chain: MESVVVGEPGMSEGRRGLGRGLSALLGEVDAAPAQAPGEQLGGSREAPIEILQRNPDQPRRTFREEDLEDLSNSIREKGVLQPILVRPSPDTAGEYQIVAGERAWRAAQRAGLKTVPIMVRELDDLAVLEIGIIENVQRADLNVLEEALSYKVLMEKFERTQENIAQTIGKSXSHVANXMRLLXLPDEVQSYLVSGELTAXHARAIAAAADPVALAKQIIEGGLSVRETEALARKAPNLSAGKSKGGRPPRVKDTDTQALESDLSSVLGLDVSIDHRGSTGTLTITYATLEQLDDLCNRLTRGI

In the assay the parent is B1. Briefly: one-hybrid fitness for binding parS DNA (scaled: cognate 1, non-cognate 0); higher = stronger binding. The note with it: with parS DNA site. The gist of the method:
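In E. coli USO, a HIS3 reporter with its site placed 19 bp from the promoter was used to select Caulobacter ParB variants randomised at four specificity codons. Growth lasted 48 hours at 37°C on histidine-free M9 containing 0.1 mM IPTG and 5 mM 3-AT. Fitness was taken as the log change in variant-to-wild-type read ratio from Illumina sequencing of pre- and post-selection plasmids, rescaled between the non-cognate and cognate sites.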
Consider DKHT, for which the “one-hybrid fitness for binding parS DNA” value was ≤ 0.2.

Consider QMGC, for which the “one-hybrid fitness for binding parS DNA” value is ≤ 0.2.

On to VQPR, for which the “one-hybrid fitness for binding parS DNA” value was ≤ 0.2.

In the case of DTNS, the “one-hybrid fitness for binding parS DNA” value was ≤ 0.2.

Consider IQYA, for which the “one-hybrid fitness for binding parS DNA” value is ≤ 0.2.

Take HSRS: the “one-hybrid fitness for binding parS DNA” value is ≤ 0.2.

For AQIA, the “one-hybrid fitness for binding parS DNA” value is ≤ 0.2.

In the case of SRKV, the “one-hybrid fitness for binding parS DNA” value is ≤ 0.2.

Consider RKYL, for which the “one-hybrid fitness for binding parS DNA” value is ≤ 0.2.

Take MGCR: the “one-hybrid fitness for binding parS DNA” value was ≤ 0.2.

As to FNNA, the “one-hybrid fitness for binding parS DNA” value is ≤ 0.2.

For the variant NSRS, the “one-hybrid fitness for binding parS DNA” value was ≤ 0.2.

As to RRVN, the “one-hybrid fitness for binding parS DNA” value was determined as 0.268.

Take PWSP: the “one-hybrid fitness for binding parS DNA” value is ≤ 0.2.

In the case of RKAK, the “one-hybrid fitness for binding parS DNA” value is ≤ 0.2.

Consider NLLC, for which the “one-hybrid fitness for binding parS DNA” value was ≤ 0.2.

Turning to DQCR, the “one-hybrid fitness for binding parS DNA” value is ≤ 0.2.

For the variant HKAR, the “one-hybrid fitness for binding parS DNA” value was ≤ 0.2.

For the variant LNDS, the “one-hybrid fitness for binding parS DNA” value is ≤ 0.2.

On to TDTD, for which the “one-hybrid fitness for binding parS DNA” value was ≤ 0.2.

For the variant PRRM, the “one-hybrid fitness for binding parS DNA” value was ≤ 0.2.

Consider CRWR, for which the “one-hybrid fitness for binding parS DNA” value was ≤ 0.2.

As for TTQA, the “one-hybrid fitness for binding parS DNA” value was ≤ 0.2.

For CMEG, the “one-hybrid fitness for binding parS DNA” value is ≤ 0.2.

As to AQSQ, the “one-hybrid fitness for binding parS DNA” value was ≤ 0.2.

On to TEPP, for which the “one-hybrid fitness for binding parS DNA” value was ≤ 0.2.

Regarding PQIL, the “one-hybrid fitness for binding parS DNA” value is ≤ 0.2.

Consider KCKE, for which the “one-hybrid fitness for binding parS DNA” value was ≤ 0.2.

Consider STQF, for which the “one-hybrid fitness for binding parS DNA” value was ≤ 0.2.

Take PMIW: the “one-hybrid fitness for binding parS DNA” value was ≤ 0.2.

For QHEV, the “one-hybrid fitness for binding parS DNA” value was ≤ 0.2.

FQGG: the “one-hybrid fitness for binding parS DNA” value is ≤ 0.2.

Take QSPE: the “one-hybrid fitness for binding parS DNA” value was ≤ 0.2.

With HKHT, the “one-hybrid fitness for binding parS DNA” value is ≤ 0.2.

For the variant QREI, the “one-hybrid fitness for binding parS DNA” value was ≤ 0.2.

With QAKL, the “one-hybrid fitness for binding parS DNA” value was ≤ 0.2.

With QEYT, the “one-hybrid fitness for binding parS DNA” value was ≤ 0.2.

As to FCHY, the “one-hybrid fitness for binding parS DNA” value is ≤ 0.2.

For the variant FIGS, the “one-hybrid fitness for binding parS DNA” value is ≤ 0.2.

Turning to KTKV, the “one-hybrid fitness for binding parS DNA” value was ≤ 0.2.

Turning to PTST, the “one-hybrid fitness for binding parS DNA” value is ≤ 0.2.

Consider TIQY, for which the “one-hybrid fitness for binding parS DNA” value is ≤ 0.2.

As for KRRE, the “one-hybrid fitness for binding parS DNA” value was ≤ 0.2.

Consider ICQR, for which the “one-hybrid fitness for binding parS DNA” value is ≤ 0.2.

Regarding RHSE, the “one-hybrid fitness for binding parS DNA” value is ≤ 0.2.

As for SLSQ, the “one-hybrid fitness for binding parS DNA” value was ≤ 0.2.

Regarding PPVK, the “one-hybrid fitness for binding parS DNA” value was ≤ 0.2.

Take TPNV: the “one-hybrid fitness for binding parS DNA” value is ≤ 0.2.

For QVQW, the “one-hybrid fitness for binding parS DNA” value was ≤ 0.2.

As to WAYR, the “one-hybrid fitness for binding parS DNA” value was ≤ 0.2.

Turning to HDGS, the “one-hybrid fitness for binding parS DNA” value was ≤ 0.2.

As for STYL, the “one-hybrid fitness for binding parS DNA” value was ≤ 0.2.

Turning to PLWE, the “one-hybrid fitness for binding parS DNA” value was ≤ 0.2.

In the case of NANN, the “one-hybrid fitness for binding parS DNA” value was ≤ 0.2.

As for LQCS, the “one-hybrid fitness for binding parS DNA” value was ≤ 0.2.

With NVIV, the “one-hybrid fitness for binding parS DNA” value was ≤ 0.2.

As for VIPR, the “one-hybrid fitness for binding parS DNA” value was ≤ 0.2.

Consider QDRC, for which the “one-hybrid fitness for binding parS DNA” value was ≤ 0.2.

For the variant PWPS, the “one-hybrid fitness for binding parS DNA” value is ≤ 0.2.

On to NMKQ, for which the “one-hybrid fitness for binding parS DNA” value was ≤ 0.2.

On to RSTG, for which the “one-hybrid fitness for binding parS DNA” value turned out to be 1.

As for AYNS, the “one-hybrid fitness for binding parS DNA” value is ≤ 0.2.

As for FTCL, the “one-hybrid fitness for binding parS DNA” value is ≤ 0.2.

CNSI: the “one-hybrid fitness for binding parS DNA” value was ≤ 0.2.

For TPRK, the “one-hybrid fitness for binding parS DNA” value was ≤ 0.2.

Regarding QKHF, the “one-hybrid fitness for binding parS DNA” value was ≤ 0.2.

EANI: the “one-hybrid fitness for binding parS DNA” value is ≤ 0.2.

As for HYNR, the “one-hybrid fitness for binding parS DNA” value was ≤ 0.2.

In the case of EDPL, the “one-hybrid fitness for binding parS DNA” value is ≤ 0.2.

In the case of TTAT, the “one-hybrid fitness for binding parS DNA” value was ≤ 0.2.

Turning to MSDS, the “one-hybrid fitness for binding parS DNA” value was ≤ 0.2.

On to PQRW, for which the “one-hybrid fitness for binding parS DNA” value is ≤ 0.2.

On to SNAV, for which the “one-hybrid fitness for binding parS DNA” value was ≤ 0.2.

In the case of REVI, the “one-hybrid fitness for binding parS DNA” value was ≤ 0.2.

For the variant PKGG, the “one-hybrid fitness for binding parS DNA” value was ≤ 0.2.

Regarding LMTW, the “one-hybrid fitness for binding parS DNA” value is ≤ 0.2.

For KHKI, the “one-hybrid fitness for binding parS DNA” value was ≤ 0.2.

As to QKGA, the “one-hybrid fitness for binding parS DNA” value was ≤ 0.2.

As for TEMR, the “one-hybrid fitness for binding parS DNA” value is ≤ 0.2.

Turning to VYHT, the “one-hybrid fitness for binding parS DNA” value is ≤ 0.2.

In the case of WPGS, the “one-hybrid fitness for binding parS DNA” value is ≤ 0.2.

In the case of GWRW, the “one-hybrid fitness for binding parS DNA” value was ≤ 0.2.

In the case of GHDF, the “one-hybrid fitness for binding parS DNA” value was ≤ 0.2.

Consider PSKW, for which the “one-hybrid fitness for binding parS DNA” value is ≤ 0.2.

In the case of FPPS, the “one-hybrid fitness for binding parS DNA” value is ≤ 0.2.

Take PSCW: the “one-hybrid fitness for binding parS DNA” value was ≤ 0.2.

Consider EVFS, for which the “one-hybrid fitness for binding parS DNA” value is ≤ 0.2.

With REKA, the “one-hybrid fitness for binding parS DNA” value was ≤ 0.2.

On to PWLS, for which the “one-hybrid fitness for binding parS DNA” value was ≤ 0.2.

For GVND, the “one-hybrid fitness for binding parS DNA” value is ≤ 0.2.

As to QVVN, the “one-hybrid fitness for binding parS DNA” value was ≤ 0.2.

Take FPDF: the “one-hybrid fitness for binding parS DNA” value was ≤ 0.2.

Consider VRNR, for which the “one-hybrid fitness for binding parS DNA” value was ≤ 0.2.

On to TPPG, for which the “one-hybrid fitness for binding parS DNA” value is ≤ 0.2.

Turning to FNER, the “one-hybrid fitness for binding parS DNA” value is ≤ 0.2.

For RGWT, the “one-hybrid fitness for binding parS DNA” value came to 0.388.

Take SQTS: the “one-hybrid fitness for binding parS DNA” value is ≤ 0.2.

For MLIG, the “one-hybrid fitness for binding parS DNA” value is ≤ 0.2.
